Article PMC11335210
No constants are given. Whether binding was seen depends on the method and setting. In cells and extracts the contact can be indirect. Some binding calls cover weakened binding; strength is not graded here. For some assays here: Tags and fused reporters may be left off the sequences shown.

By UniProt entry, the sequences of proteins in these tests, tags left out.
UniProt Q9QUI0: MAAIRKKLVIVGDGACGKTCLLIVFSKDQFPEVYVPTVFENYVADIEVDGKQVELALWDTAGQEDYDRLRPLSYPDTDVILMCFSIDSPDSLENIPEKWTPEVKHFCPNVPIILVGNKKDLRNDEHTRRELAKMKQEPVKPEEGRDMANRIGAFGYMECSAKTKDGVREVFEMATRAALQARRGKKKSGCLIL

Tests used:
[1] = molecular target: T1, human PKP4 N-terminally tagged with EGFP (EGFP-PKP4-WT) (human) (UniProt Q99569); assay: co-IP; GFP-Trap Agarose on lysates of PKP4-KO + GFP-PKP4 (Rescue) keratinocytes, WT + GFP cells as control; IP buffer 20 mM Tris-HCl pH 7.5, 137 mM NaCl, 2 mM EDTA, 10% glycerol, 1% NP-40; 1 h at 4 °C; western blot
T1 sequence: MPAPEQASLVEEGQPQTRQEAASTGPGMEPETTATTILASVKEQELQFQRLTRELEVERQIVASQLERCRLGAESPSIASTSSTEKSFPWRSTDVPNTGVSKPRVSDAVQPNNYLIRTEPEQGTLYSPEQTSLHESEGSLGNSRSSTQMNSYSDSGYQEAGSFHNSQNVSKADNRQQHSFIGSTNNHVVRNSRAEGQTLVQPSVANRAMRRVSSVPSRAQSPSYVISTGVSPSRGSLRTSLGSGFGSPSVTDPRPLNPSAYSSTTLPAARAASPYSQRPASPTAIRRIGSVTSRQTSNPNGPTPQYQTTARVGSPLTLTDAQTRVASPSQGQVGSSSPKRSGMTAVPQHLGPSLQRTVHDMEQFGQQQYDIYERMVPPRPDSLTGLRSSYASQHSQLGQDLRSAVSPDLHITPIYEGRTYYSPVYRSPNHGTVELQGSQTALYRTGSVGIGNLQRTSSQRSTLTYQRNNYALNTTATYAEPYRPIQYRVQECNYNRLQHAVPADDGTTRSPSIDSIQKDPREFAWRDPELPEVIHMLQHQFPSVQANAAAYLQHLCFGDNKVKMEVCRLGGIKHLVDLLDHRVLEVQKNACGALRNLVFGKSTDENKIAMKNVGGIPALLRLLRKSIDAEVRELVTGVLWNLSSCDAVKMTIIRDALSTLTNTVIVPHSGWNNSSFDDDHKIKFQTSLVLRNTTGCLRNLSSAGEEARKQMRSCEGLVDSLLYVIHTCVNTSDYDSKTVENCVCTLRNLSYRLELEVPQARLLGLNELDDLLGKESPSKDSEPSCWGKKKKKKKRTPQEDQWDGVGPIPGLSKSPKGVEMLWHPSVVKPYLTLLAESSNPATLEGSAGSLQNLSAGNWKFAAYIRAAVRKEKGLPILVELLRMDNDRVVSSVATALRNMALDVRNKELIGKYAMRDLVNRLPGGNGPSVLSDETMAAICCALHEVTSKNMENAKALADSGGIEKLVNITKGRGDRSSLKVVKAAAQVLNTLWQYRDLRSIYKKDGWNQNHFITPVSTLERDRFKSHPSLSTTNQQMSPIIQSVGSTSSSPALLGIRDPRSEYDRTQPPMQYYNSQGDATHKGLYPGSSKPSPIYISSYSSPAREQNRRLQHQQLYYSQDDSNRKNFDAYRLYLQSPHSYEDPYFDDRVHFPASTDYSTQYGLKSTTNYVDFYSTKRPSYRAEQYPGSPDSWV

[2] = molecular target: T2, ARHGEF2 (also called GEFH1) (mouse (endogenous in mouse keratinocytes)) (UniProt Q60875); assay: co-IP; anti-ARHGEF2 antibody and Protein A agarose on lysates of WT and PKP4-KO keratinocytes kept 24 h in HCM; normal rabbit IgG as control; IP buffer with 1% NP-40, 137 mM NaCl; western blot
T2 sequence: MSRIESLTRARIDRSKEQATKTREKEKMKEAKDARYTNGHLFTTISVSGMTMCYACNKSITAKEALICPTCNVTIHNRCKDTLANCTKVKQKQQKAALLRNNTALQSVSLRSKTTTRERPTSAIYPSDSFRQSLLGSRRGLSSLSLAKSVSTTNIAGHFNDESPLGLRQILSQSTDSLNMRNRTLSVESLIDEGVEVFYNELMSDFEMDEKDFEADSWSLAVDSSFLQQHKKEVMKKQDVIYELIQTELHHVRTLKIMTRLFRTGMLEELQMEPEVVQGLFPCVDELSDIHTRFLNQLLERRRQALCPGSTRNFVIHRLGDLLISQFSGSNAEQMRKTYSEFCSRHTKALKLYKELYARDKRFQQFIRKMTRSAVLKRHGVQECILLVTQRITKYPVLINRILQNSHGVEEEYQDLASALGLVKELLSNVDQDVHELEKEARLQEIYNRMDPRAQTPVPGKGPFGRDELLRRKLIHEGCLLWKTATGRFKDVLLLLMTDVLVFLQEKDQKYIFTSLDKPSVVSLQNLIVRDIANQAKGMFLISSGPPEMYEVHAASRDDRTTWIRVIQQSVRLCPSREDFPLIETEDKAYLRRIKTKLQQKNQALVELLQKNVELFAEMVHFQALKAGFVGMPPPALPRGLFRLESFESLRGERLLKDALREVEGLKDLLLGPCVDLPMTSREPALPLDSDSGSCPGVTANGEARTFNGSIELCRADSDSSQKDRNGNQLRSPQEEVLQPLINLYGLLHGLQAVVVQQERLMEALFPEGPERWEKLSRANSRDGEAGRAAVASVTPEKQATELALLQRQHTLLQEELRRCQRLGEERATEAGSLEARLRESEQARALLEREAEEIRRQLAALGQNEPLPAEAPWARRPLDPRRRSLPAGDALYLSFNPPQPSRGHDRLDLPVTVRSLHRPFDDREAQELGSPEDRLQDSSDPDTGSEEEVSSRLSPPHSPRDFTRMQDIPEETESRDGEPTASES

RhoA (from UniProt Q9QUI0 1-193)
binding [1]: no binding
binding [2]: binds
